# Whole data set: some 33,000 sequences, median “E-score (dimensionless, -0.5 to 0.5)” near -0.058, cut for the highest 2% near 0.35. The list shows a part of the results.
# Tested on: MvaT
# Assay: PBM 8-mer E-score (mean of HK and ME arrays) (E-score (dimensionless, -0.5 to 0.5)); higher = stronger relative binding preference; most listed sequences are background and not binding sites
# Procedure, shortened: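 Full-length P. aeruginosa MvaT, with glutathione S-transferase fused to its N-terminus (cloned into pTH6838 by isothermal assembly), was tested by protein binding microarray using a previously described protocol. Two universal double-stranded 60-mer arrays (ME and HK) were used, each with a constant 25-mer primer region and a variable 35-mer region covering all 8-mers. The rank-based 8-mer E-score (-0.5 to 0.5) is the mean of the two arrays, parsed with a custom Python script.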
row,Sequence,PBM 8-mer E-score
1,ATGAGAAT,0.00921
2,GGTTATAC,0.0501
3,CACGTCTA,-0.133
4,CGGTGCGC,-0.18
5,CACTGCTC,-0.18
6,GTATGAAC,0.0873
7,AATCACTG,0.0985
8,GCACCCTA,-0.0451
9,AATCCGTA,0.0525
10,AATCTTTC,0.158
11,GACATACC,-0.0731
12,ACACTCGG,-0.0519
13,GCTGGGAC,-0.205
14,ATACACTG,0.0549
15,CGATCGTC,-0.246
16,CCACAGTC,-0.186
17,CAGCGTAA,-0.0641
18,AAACATAT,0.361
19,AAACTGGA,0.0758
20,CATTACAA,0.166
21,TCAACCGA,-0.0506
22,CAGTATGG,-0.093
23,GTTGTGGA,0.138
24,CGAAAAAC,0.145
25,GGATGCAA,-0.0199

row,Sequence,PBM 8-mer E-score
1,AAGTGCCA,-0.0898
2,CGAGCATA,0.0551
3,GTAACTGA,0.199
4,CAAGGCTC,-0.183
5,CCCGTCCC,-0.311
6,CCGAATCG,-0.0188
7,AGACCACA,-0.0662
8,AGAAGAGC,-0.105
9,ACTACGCG,-0.0273
10,GAACTGGC,-0.153
11,AATTATGT,0.366
12,AAACGTCG,-0.0425
13,GCAGTGGC,-0.129
14,CACCAGTA,0.132
15,ACCGTTCC,-0.0982
16,CCGTGAGC,-0.17
17,AGAGACGA,-0.0812
18,ATAGGGGC,-0.0502
19,ATTAATAG,0.426
20,AGTCGCAA,0.0896
21,CTCAAAGC,-0.0834
22,CCCACCAA,-0.0922
23,AAGGCCCT,-0.239
24,TCACCTAA,-0.00816
25,CATTCGCA,0.0126

row,Sequence,PBM 8-mer E-score
1,GAATGTGA,0.082
2,AGTTGGAA,0.144
3,AATCGGTA,0.0299
4,AGATCCAG,-0.095
5,ATCAGTTC,0.1
6,AATCGCGT,-0.00244
7,CTCCACTA,-0.0617
8,GAGAGCTC,-0.254
9,GAAAGCAA,-0.00289
10,ACACGATA,0.142
11,GACCTAAA,-0.0673
12,AGGTAGGA,-0.159
13,CTAGGGAG,-0.278
14,TGGTCCAA,-0.114
15,AACCCCGA,-0.214
16,TGAGCGAA,-0.0163
17,GGGCCCCC,-0.302
18,ACCTTAGC,-0.0878
19,CCGTAAGA,0.024
20,CTAGAACA,0.0773
21,AACGTCGT,0.00036
22,GTGTAGTA,0.183
23,CTGGCTGA,-0.312
24,AGCGTACG,-0.209
25,AGGGTCAT,-0.103

row,Sequence,PBM 8-mer E-score
1,CTTCACGA,-0.278
2,AGTATCGC,0.0389
3,AAAGAACT,0.233
4,GCATGGTA,-0.0267
5,CCATATGA,0.0677
6,ATAGAGGC,-0.0972
7,ATTCAGGA,0.0538
8,CGAACAAA,0.165
9,TATTCGCA,0.306
10,CTTTTCGA,0.0489
11,GTATCGAA,-0.0719
12,ATCTCCTG,-0.149
13,GACCTCAA,-0.134
14,CAGCGAAG,-0.0198
15,CCCACCGC,0.000846
16,TCTCTAAA,-0.131
17,GCACGCCA,-0.165
18,ATTGTTCG,0.209
19,CAACCGAG,-0.149
20,GCTCGAAA,-0.0703
21,GCGGCGCC,-0.224
22,CCTCCTGC,-0.298
23,AACCTTGG,-0.174
24,CGCATTAA,0.188
25,ACCACCGA,-0.0393

row,Sequence,PBM 8-mer E-score
1,CGACAAAA,0.228
2,CTGGACAA,-0.0325
3,CAACCCAG,-0.151
4,AGAGGACC,-0.191
5,CTTTTGGA,-0.0848
6,CCGATACC,-0.187
7,TCCAGAGA,-0.13
8,TCAATAAA,0.22
9,AGTGCGAT,0.119
10,TCTGCCCA,-0.179
11,GGTTTTGA,0.0286
12,GGTTCAGA,-0.252
13,ACCATCTC,-0.0746
14,CCCTCACA,-0.151
15,GAGGTTGA,-0.185
16,CGGTTAAA,0.185
17,ACTGCATC,-0.0676
18,ATTATAAA,0.462
19,CCTAGCGA,-0.163
20,CAGACCAC,-0.118
21,TACCGAGA,-0.116
22,AAGCCCCG,-0.182
23,AATTTGAC,0.185
24,GACTCAGA,-0.118
25,GCAGAGAC,-0.251

row,Sequence,PBM 8-mer E-score
1,GAGTACGC,-0.192
2,TTGAGCAA,0.0965
3,AATCCCTG,-0.0656
4,ATGAGGTG,0.00708
5,TGGACACA,-0.0605
6,GCAGGGTA,-0.137
7,AGTCGATG,-0.108
8,AAGCCAGT,0.0245
9,ACGATAAC,0.218
10,ACTACACT,0.196
11,ATCGCTCG,-0.0585
12,ACTGGAAC,0.0906
13,TTTATAAA,0.411
14,GAGGCAAA,-0.068
15,CGATGATC,-0.0902
16,ATGTCACG,-0.0289
17,ACTCGCGG,-0.158
18,AGGGAGGC,-0.349
19,AAGACGAG,-0.0162
20,GTGGCCAC,-0.237
21,AGCGTTGA,-0.0483
22,GACGGTGC,-0.172
23,AGGGCGCC,-0.232
24,CATACGGC,-0.244
25,GATATAGA,0.206

row,Sequence,PBM 8-mer E-score
1,AATCATCC,-0.227
2,AAACCGTA,-0.14
3,ATTCGCTA,0.115
4,CGATAGCA,-0.0638
5,ATGATCTA,-0.14
6,CTCATCAA,-0.0702
7,ACGGTTGG,-0.0398
8,CTCAACCA,-0.172
9,CGACCCCA,-0.232
10,AGGCTAGA,-0.132
11,CCTTCTAG,-0.098
12,CTGTCTGC,-0.135
13,ACCAGTAC,-0.0114
14,ACTAGGCT,-0.105
15,CACGCACC,-0.225
16,AGTGGAAC,-0.0294
17,CTGGGTAC,-0.214
18,AGCGAACC,-0.0433
19,AGGTCACT,-0.188
20,ACGGTAGG,-0.138
21,TCCGTAGA,-0.0646
22,TAAACCTA,0.0436

# — the supplement of paper PMC4466236
